According to publication PMC4336329 (PLoS ONE, 2015):
Hit rate of the full screen: of about 310,000 compounds, about 14,000 (4.5%) showed an effect of 50% or more. Effects have a minus sign here. Some of the results follow.

What follows are molecules tested against human ether-à-go-go-related gene (hERG) potassium channel (human, UniProt Q12809) (assay: primary screen, population patch clamp on CHO cells stably expressing hERG).
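Also: peak tail current of the secondary pulse compared with the same well before compound.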

Chain of human ether-à-go-go-related gene (hERG) potassium channel (Q12809 whole entry, looked up): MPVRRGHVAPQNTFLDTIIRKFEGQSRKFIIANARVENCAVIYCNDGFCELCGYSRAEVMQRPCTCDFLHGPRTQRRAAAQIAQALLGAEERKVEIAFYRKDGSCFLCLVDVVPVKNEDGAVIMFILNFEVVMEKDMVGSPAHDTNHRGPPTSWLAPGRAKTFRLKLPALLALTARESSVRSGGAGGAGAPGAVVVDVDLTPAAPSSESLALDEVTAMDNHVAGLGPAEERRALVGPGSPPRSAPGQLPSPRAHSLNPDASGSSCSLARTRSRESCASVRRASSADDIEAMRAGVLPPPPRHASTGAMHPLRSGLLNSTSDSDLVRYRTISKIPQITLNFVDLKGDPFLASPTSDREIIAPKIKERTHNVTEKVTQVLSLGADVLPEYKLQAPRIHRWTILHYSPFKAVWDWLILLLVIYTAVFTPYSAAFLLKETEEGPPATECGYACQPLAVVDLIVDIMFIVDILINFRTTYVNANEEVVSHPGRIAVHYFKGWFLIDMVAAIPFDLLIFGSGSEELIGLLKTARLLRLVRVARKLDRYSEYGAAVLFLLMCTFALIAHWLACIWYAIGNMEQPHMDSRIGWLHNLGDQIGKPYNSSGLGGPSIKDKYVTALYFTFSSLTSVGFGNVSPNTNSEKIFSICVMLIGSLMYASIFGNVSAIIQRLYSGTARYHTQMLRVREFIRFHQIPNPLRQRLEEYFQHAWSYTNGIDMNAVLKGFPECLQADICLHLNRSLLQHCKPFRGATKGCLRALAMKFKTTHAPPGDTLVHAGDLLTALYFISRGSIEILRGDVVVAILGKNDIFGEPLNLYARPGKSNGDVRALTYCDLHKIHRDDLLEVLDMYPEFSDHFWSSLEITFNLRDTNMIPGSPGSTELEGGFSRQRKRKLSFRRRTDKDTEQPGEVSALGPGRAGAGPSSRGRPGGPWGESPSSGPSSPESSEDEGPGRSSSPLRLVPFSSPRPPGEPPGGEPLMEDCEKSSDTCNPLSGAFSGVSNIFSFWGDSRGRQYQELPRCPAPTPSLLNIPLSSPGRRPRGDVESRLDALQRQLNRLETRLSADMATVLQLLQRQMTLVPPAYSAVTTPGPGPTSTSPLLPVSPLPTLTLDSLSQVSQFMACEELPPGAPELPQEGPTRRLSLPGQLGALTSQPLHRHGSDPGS

First: CCc1ccc(S(=O)(=O)Nc2ccc(-c3ccc4nncn4n3)cc2)s1
Second: CC(C)C(=O)Nc1ccc(-c2nc3ncccc3o2)cc1
The “hERG current change (%, negative = inhibition) at 10uM” value of the first is lower: -6.08% for the first, -3.36% for the second.

Compared with `CCCn1c(=O)c2c(nc3n2CCN3Cc2ccco2)n(C)c1=O`, `CCCN1C=CC(=C2C(=O)c3ccccc3C2=O)C=C1` is lower in “hERG current change (%, negative = inhibition) at 10uM” value: -5.94% for the first, -23.8% for the second.

Compared with `Cn1cnc2c(=O)[nH]cc([N+](=O)[O-])c21.O`, `N#Cc1ccc(N2CCCC2C(=O)O)c([N+](=O)[O-])c1` (stereo not drawn) is lower in “hERG current change (%, negative = inhibition) at 10uM” value: 15.8% for the first, 13.1% for the second.

Compared with `Cc1cc(=O)oc2cc(OC(C)C(=O)NCC3CCC(C(=O)O)CC3)c(Cl)cc12` (stereo not drawn), `Cc1c(OC(=O)CNC(=O)OC(C)(C)C)ccc2c3c(c(=O)oc12)CCC3` is lower in “hERG current change (%, negative = inhibition) at 10uM” value: 8.95% for the first, -0.415% for the second.

Going from `CCCc1nnc(SCC(=O)N2CCCC(C)C2)n1CCOC` (stereo not drawn) to `COCCOn1c(SCCOC)nc2ccccc2c1=O`, the “hERG current change (%, negative = inhibition) at 10uM” value falls from 16.5% to -4.58%.

Compared with `Cc1cc(C)n2nc(-c3cccc(Br)c3)cc2n1`, `Cc1cc(C)c2c(n1)sc1c(=O)n(Cc3ccc(F)cc3)cnc12` is higher in “hERG current change (%, negative = inhibition) at 10uM” value: 5.31% for the first, 11% for the second.

Compared with `N#CCCN(C(=O)Nc1ccccc1)c1ccccc1`, `Cc1c(NC(=O)C2(c3ccccc3)CCCC2)c(=O)n(-c2ccccc2)n1C` is lower in “hERG current change (%, negative = inhibition) at 10uM” value: 13.7% for the first, -1.94% for the second.

Going from `Cc1nc(SC2CC(=O)N(c3cc(Cl)cc(Cl)c3)C2=O)nc2c1CCCC2` (stereo not drawn) to `Cc1cc(C(=O)Nc2sc3c(c2C#N)CCC3)no1`, the “hERG current change (%, negative = inhibition) at 10uM” value rises from 2.14% to 16.9%.

First: CC1=CC2=NC(=O)CC(C)(C(=O)N(CC(=O)NC3CCCC3)c3cc(C)cc(C)c3)N2C=C1 (stereo not drawn)
Second: COc1ccc(Cl)cc1NC(=O)CN(C)C(=O)CN1C(=O)NC2(CCCC2)C1=O
The “hERG current change (%, negative = inhibition) at 10uM” value of the first is higher: 17.9% for the first, 2.29% for the second.

Going from `CCCCC(=O)Nc1cccc2c1C(=O)N(c1ccccc1)C2=O` to `Cc1ccc(OCCC(=O)Nc2c(C)n(C)n(-c3ccccc3)c2=O)cc1`, the “hERG current change (%, negative = inhibition) at 10uM” value rises from -12.4% to -3.74%.

First: Cc1c(C(=O)OCC(=O)N2CC(=O)Nc3ccccc32)oc2ccc(Br)cc12
Second: O=c1c2ccccc2oc2cc(OCc3ccc(F)cc3)cc(O)c12
The “hERG current change (%, negative = inhibition) at 10uM” value of the first is lower: -3.05% for the first, 19.4% for the second.

Going from `CCN(CC)C(=O)c1cccc(C)c1` to `CSc1ccccc1NC(=O)c1csc(C)c1`, the “hERG current change (%, negative = inhibition) at 10uM” value rises from 0.757% to 13.8%.

Going from `CS(=O)(=O)Nc1ccc(C(=O)N2CCN(c3ccccc3F)CC2)cc1` to `CCOC(=O)N1CCC(NC(=O)c2ccc(CNS(=O)(=O)c3ccc(F)cc3)cc2)CC1`, the “hERG current change (%, negative = inhibition) at 10uM” value rises from -68.1% to -6.82%.

First: CCCc1cc(=O)[nH]c(SCC(=O)Nc2ccc(Br)cc2Br)n1
Second: CCCOc1cccc(OCCSc2nc(C)cc(=O)[nH]2)c1
The “hERG current change (%, negative = inhibition) at 10uM” value of the first is higher: 12.2% for the first, 1.17% for the second.

First: Cc1ccc(-c2nc3ccccc3c(=O)n2N)cc1
Second: CCOC(=O)c1c(-c2ccc(F)cc2)cn2ccccc12
The “hERG current change (%, negative = inhibition) at 10uM” value of the first is lower: -5.67% for the first, 14.2% for the second.

First: COc1cccc(CNC(=O)C2CCN(c3cnccn3)CC2)c1
Second: O=C(COc1ccccc1)Nc1ccc2c(c1)nc1n2CCSC1
The “hERG current change (%, negative = inhibition) at 10uM” value of the first is higher: -12.4% for the first, -18.6% for the second.

First: OCCC1CN(Cc2cccn2-c2cccnc2)CCN1C1CCCCC1 (stereo not drawn)
Second: Cc1nc2c(ncn2-c2ccccc2)c(=O)n1NC(=O)CN1CCCCC1
The “hERG current change (%, negative = inhibition) at 10uM” value of the first is lower: -28.1% for the first, 17.4% for the second.

Compared with `O=C(c1ccc(C(F)(F)F)cc1)C1CCCN(Cc2ccc(CO)o2)C1` (stereo not drawn), `O=C(C1=C[C@@H](c2ccc(Br)cc2)C[C@@H](OCCCCO)O1)N1CCN(Cc2ccccc2)CC1` is lower in “hERG current change (%, negative = inhibition) at 10uM” value: -24.6% for the first, -91.7% for the second.

Compared with `OCc1cccnc1`, `O=C(C(Cl)Cl)N1CCN(Cc2ccccc2)CC1` is lower in “hERG current change (%, negative = inhibition) at 10uM” value: 21.3% for the first, -4.72% for the second.

First: CCOc1ccc(NC(=O)N(C2CCCC2)C2CCN(C(C)=O)CC2)cc1
Second: CCC(NS(=O)(=O)c1ccc(OC)cc1)C(=O)NCCC1=CCCCC1 (stereo not drawn)
The “hERG current change (%, negative = inhibition) at 10uM” value of the first is lower: -0.735% for the first, 8.58% for the second.

Going from `S=c1[nH]nc(-c2cccs2)n1/N=C/c1cn(-c2ccccc2)nc1-c1ccccc1` to `CN(Cc1ccccc1)S(=O)(=O)c1ccc(Cl)c(C(=O)NCc2ccc3c(c2)OCO3)c1`, the “hERG current change (%, negative = inhibition) at 10uM” value falls from 18% to 5.48%.

Going from `Cc1cccc2c1cnn2C(=O)CCC(=O)NCc1ccc(F)cc1` to `COc1ccc(CNC(=O)CCCn2nc(C)c([N+](=O)[O-])c2C)cc1OC`, the “hERG current change (%, negative = inhibition) at 10uM” value falls from -0.841% to -14.8%.

Compared with `CCN1CCN(C(=S)Nc2ccc3nc(N4CCN(C)CC4)cc(C)c3c2)CC1`, `O=C(Nc1ccc(N2CCOCC2)c(Cl)c1)c1ncn[nH]1` is lower in “hERG current change (%, negative = inhibition) at 10uM” value: -2.94% for the first, -3.02% for the second.

Going from `CCc1cc2c(-n3nc(C)cc3C)ncnc2s1` to `COc1ccc(C)cc1NC(=O)c1cc2c(CO)cnc(C)c2oc1=N`, the “hERG current change (%, negative = inhibition) at 10uM” value rises from 1.96% to 9.84%.

First: Cc1oc(C(C)(C)C)cc1C(=O)Nc1ccc2c(c1)OCO2
Second: CC(c1ccccc1)c1nnc(NC(=O)c2ccc3c(c2)OCO3)s1 (stereo not drawn)
The “hERG current change (%, negative = inhibition) at 10uM” value of the first is higher: 9.23% for the first, 7.96% for the second.

Compared with `O=C(CN1CCOCC1)Nc1ccccc1C(=O)O`, `Cc1cc(SC(C)C(=O)O)nc2ccccc12` (stereo not drawn) is higher in “hERG current change (%, negative = inhibition) at 10uM” value: -32.3% for the first, 21.6% for the second.

Going from `COC(=O)[C@H](CCSC)NC(=O)NCc1cccs1` to `COC(=O)CCC(=O)OC1(C)C(=O)C=C2C=C(c3ccsc3)OC=C2C1=O` (stereo not drawn), the “hERG current change (%, negative = inhibition) at 10uM” value falls from 20.6% to 1.22%.

First: CCOc1ccc(N)cc1OC.Cl
Second: CCOC(=O)c1c(C)[nH]c(C(=O)N(C)Cc2cccc(OC)c2OC)c1C
The “hERG current change (%, negative = inhibition) at 10uM” value of the first is lower: 5.32% for the first, 8.92% for the second.

First: COc1c(Cl)cc(Cl)cc1CNCc1ccccc1.Cl
Second: Cc1noc(C)c1C(=O)OC(C)C(=O)Nc1ccc(S(=O)(=O)NC(C)C)cc1 (stereo not drawn)
The “hERG current change (%, negative = inhibition) at 10uM” value of the first is lower: -27% for the first, -9.36% for the second.

First: Cc1ccc(C(=O)CSC2=NC(N)=C(C#N)C3(CCCCC3)C2C(N)=O)cc1 (stereo not drawn)
Second: CCCN[C@H]1CCc2nc(N)sc2C1
The “hERG current change (%, negative = inhibition) at 10uM” value of the first is lower: -14.8% for the first, -9.81% for the second.
